18 molecules from the supplement of paper PMC10369915 can be followed below.

The other results are listed elsewhere or left out. Cut-off read from the data, not from the text of the source: active = 3.2 or more and inactive = the rest. Only a few entries rise above the background.

The chains are these.
B1: CPS1_Y879 (peptide)
chain: DKWFLYKMRDI
B2: CLEC12B_Y7 (peptide)
chain: SEEVTYATLTF
B3: CPS1_Y634_I632R (peptide)
chain: WKEREYEVVRD
B4: CPT1B_Y534 (peptide)
chain: VIESSYQVAKA
B5: CLDN14_Y233_YF (peptide)
chain: ATHSGYRLNDF
B6: CRLF1_Y272_F268S (peptide)
chain: LSQAKYQIRYR
B7: CLEC12A_Y242_K244Q (peptide)
chain: YYHCTYKQRMI
B8: CPS1_Y1491_Y1491H (peptide)
chain: KSLFHHRQYSA
B9: CPS1_Y872 (peptide)
chain: IEKLTYIDKWF
B10: CRYBB1_Y131 (peptide)
chain: TWSSSYRSDRL
B11: CLK1_Y56_S61F (peptide)
chain: MCDSHYLESRF
B12: CPT1B_Y534_E531K (peptide)
chain: VIKSSYQVAKA
B13: CLRN1_Y171_YF (peptide)
chain: EKIANYKEGTF
B14: CPO_Y278_K273N (peptide)
chain: NYGTNYRVGSS
B15: CNBD1_Y70 (peptide)
chain: TFMKQYPKVFL
B16: CRYAA_Y48_R49C (peptide)
chain: TISPYYCQSLF
B17: CRYAA_Y48 (peptide)
chain: TISPYYRQSLF
B18: CLK1_Y305_P307S_YF (peptide)
chain: DFTEAYNSKIK
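Note: displayed peptides selected on beads carrying the immobilized SH2 domain, with library peptides lacking any tyrosine serving as negative controls.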

In the first assay the target is SHP2 C-SH2 domain E139D. Kind of assay: enrichment score (SH2-bound / input frequency) (ratio); bacterial display of known human phosphotyrosine sites (pTyr-Var adds point mutants) read by sequencing; higher = stronger binding; tyrosines were phosphorylated by kinases first. The conditions noted are these: peptide library: pTyr-Var.
For B1, the enrichment score was inactive: 0.532.

With B2, the enrichment score was inactive: 0.88.

Consider B3, for which the enrichment score is inactive: 0.886.

In the case of B4, the enrichment score is inactive: 0.495.

As for B5, the enrichment score is inactive: 1.07.

With B6, the enrichment score was inactive: 0.579.

B7: the enrichment score was active: 3.43.

As for B8, the enrichment score is inactive: 0.853.

B9: the enrichment score is inactive: 0.659.

Regarding B10, the enrichment score was inactive: 0.843.

For the molecule B11, the enrichment score is inactive: 0.982.

For the molecule B12, the enrichment score is inactive: 1.13.

With B13, the enrichment score is inactive: 0.845.

Take B14: the enrichment score is inactive: 0.595.

For the molecule B15, the enrichment score was inactive: 0.902.

Turning to B16, the enrichment score is inactive: 1.12.

Turning to B17, the enrichment score is inactive: 0.794.

B18: the enrichment score was inactive: 0.741.

In a further assay the target is SHP2 C-SH2 domain wild-type. The description is as above. To be noted: peptide library: pTyr-Var.
Consider B1, for which the enrichment score is inactive: 0.631.

With B2, the enrichment score was inactive: 0.997.

Consider B3, for which the enrichment score is inactive: 0.913.

On to B4, for which the enrichment score was inactive: 0.494.

On to B5, for which the enrichment score was inactive: 0.764.

As for B6, the enrichment score was inactive: 0.78.

As to B7, the enrichment score was inactive: 3.12.

Take B8: the enrichment score is inactive: 0.687.

On to B9, for which the enrichment score was inactive: 0.715.

B10: the enrichment score is inactive: 0.727.

As to B11, the enrichment score is inactive: 0.886.

Regarding B12, the enrichment score is inactive: 0.693.

B13: the enrichment score was inactive: 0.776.

As for B14, the enrichment score was inactive: 0.559.

As to B15, the enrichment score was inactive: 0.964.

As for B16, the enrichment score was inactive: 1.07.

As for B17, the enrichment score was inactive: 0.709.

Take B18: the enrichment score is inactive: 1.01.

For a further assay, the target named is SHP2 N-SH2 domain L43F. The description is as above. To be noted: peptide library: pTyr-Var.
With B1, the enrichment score is inactive: 0.575.

As for B2, the enrichment score was inactive: 1.03.

Take B3: the enrichment score was inactive: 0.771.

Consider B4, for which the enrichment score was inactive: 0.621.

Consider B5, for which the enrichment score is inactive: 0.77.

Turning to B6, the enrichment score was inactive: 0.591.

Turning to B7, the enrichment score is inactive: 2.84.

As for B8, the enrichment score was inactive: 0.541.

Take B9: the enrichment score was inactive: 0.63.

Turning to B10, the enrichment score was inactive: 0.721.

With B11, the enrichment score was inactive: 0.877.

Consider B12, for which the enrichment score was inactive: 0.931.

Consider B13, for which the enrichment score is inactive: 0.628.

Take B14: the enrichment score was inactive: 0.63.

As to B15, the enrichment score was inactive: 0.797.

For the molecule B16, the enrichment score was inactive: 1.55.

Turning to B17, the enrichment score is inactive: 0.721.

In the case of B18, the enrichment score was inactive: 0.792.

The next assay concerns the target SHP2 N-SH2 domain T42A. The assay is described as above. The conditions noted are these: peptide library: pTyr-Var.
B1: the enrichment score was inactive: 0.574.

For B2, the enrichment score was inactive: 1.25.

In the case of B3, the enrichment score was inactive: 0.846.

For B4, the enrichment score was inactive: 0.557.

On to B5, for which the enrichment score was inactive: 0.707.

Turning to B6, the enrichment score is inactive: 0.462.

Take B7: the enrichment score was inactive: 2.66.

As for B8, the enrichment score is inactive: 0.582.

On to B9, for which the enrichment score was inactive: 0.781.

As for B10, the enrichment score is inactive: 0.828.

In the case of B11, the enrichment score was inactive: 0.89.

As to B12, the enrichment score is inactive: 0.742.

For the molecule B13, the enrichment score was inactive: 0.567.

Take B14: the enrichment score is inactive: 0.619.

Turning to B15, the enrichment score is inactive: 0.888.

For B16, the enrichment score is inactive: 0.909.

Take B17: the enrichment score is inactive: 0.717.

For the molecule B18, the enrichment score was inactive: 0.748.

A further assay deals with SHP2 N-SH2 domain T52S. Described as above. To be noted: peptide library: pTyr-Var.
B1: the enrichment score was inactive: 0.493.

For B2, the enrichment score was inactive: 1.01.

For the molecule B3, the enrichment score was inactive: 0.749.

For B4, the enrichment score is inactive: 0.593.

Regarding B5, the enrichment score is inactive: 0.718.

With B6, the enrichment score was inactive: 0.696.

With B7, the enrichment score was inactive: 2.68.

Consider B8, for which the enrichment score is inactive: 0.699.

Regarding B9, the enrichment score was inactive: 1.17.

Take B10: the enrichment score is inactive: 0.825.

Take B11: the enrichment score was inactive: 0.82.

Take B12: the enrichment score is inactive: 0.708.

Take B13: the enrichment score was inactive: 0.698.

Consider B14, for which the enrichment score was inactive: 0.602.

Consider B15, for which the enrichment score is inactive: 1.1.

Regarding B16, the enrichment score was inactive: 1.14.

Turning to B17, the enrichment score is inactive: 0.856.

As to B18, the enrichment score was inactive: 0.842.

For the next assay, the target named is SHP2 N-SH2 domain wild-type. The description is as above. To be noted: peptide library: pTyr-Var.
For B1, the enrichment score is inactive: 0.772.

Turning to B2, the enrichment score was inactive: 0.999.

As to B3, the enrichment score was inactive: 0.647.

Consider B4, for which the enrichment score is inactive: 0.662.

B5: the enrichment score is inactive: 0.701.

For the molecule B6, the enrichment score was inactive: 0.865.

With B7, the enrichment score is inactive: 2.84.

On to B8, for which the enrichment score was inactive: 0.621.

For the molecule B9, the enrichment score was inactive: 0.772.

On to B10, for which the enrichment score was inactive: 0.902.

Consider B11, for which the enrichment score is inactive: 0.928.

For the molecule B12, the enrichment score was inactive: 0.822.

Turning to B13, the enrichment score was inactive: 0.683.

Take B14: the enrichment score is inactive: 0.724.

For the molecule B15, the enrichment score was inactive: 0.804.

For the molecule B16, the enrichment score was inactive: 1.17.

B17: the enrichment score was inactive: 0.8.

For the molecule B18, the enrichment score is inactive: 1.09.
